± gives the standard deviation. The entries are a selection whose mix differs from that of the whole data set.
System: MIWI (PIWIL1) piRISC loaded with L1MC piRNA (30 nt)
Assay: pre-steady-state target cleavage rate (min^-1); MIWI and MILI are mouse PIWI proteins and EfPiwi is from a freshwater sponge; tags in brackets are library labels; higher = faster piRNA-guided slicing of the target
Details: guide: L1MC piRNA 5'p-UAACUAAAUACUAUGCAAGCUGUAGGUCCU
Procedure, shortened: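 Active affinity-purified piRISC carrying one synthetic guide (1 nM) was mixed with a transcribed, DNA-blocked target RNA library […] in HEPES–potassium acetate buffer at 33 °C for 0–8 or 0–960 min, with or without 500 nM GTSF1 partner protein. Uncleaved targets were then sequenced and normalised to depth and to weakly complementary targets. Three trials were pooled, and k3 was capped at 0.0001 min^-1. A burst-and-steady-state fit was applied to obtain the pre-steady-state cleavage rate.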

[1] = auxiliary factor: 500 nM mouse GTSF1
[2] = auxiliary factor: none (no GTSF1)
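Note: 1 nM active piRISC with 0.1 nM target library at 33 °C single turnover.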

| Sequence | pre-steady-state target cleavage rate [1] | pre-steady-state target cleavage rate [2] |
| --- | --- | --- |
| UCGACCUACACGUUGCAUAGUAUUUAGUUA | 1.18 ± 0.036 | 0.0225 ± 0.0036 |
| UCCUGGAACAGCUUGCAUAGUAUUUACAAA | 0.357 ± 0.05 | 0.00404 ± 0.0025 |
| UCCUGCUACAGGUUGCUUAGUAUUUAGUUA | 1.08 ± 0.073 | 0.0138 ± 0.0036 |
| UGGACCUACUGCUUGCAAAGUAUUUAGUUA | 1.23 ± 0.059 | 0.0383 ± 0.0078 |
| UCCUCCUACAGCUUGCAUAGUAUUUAGUUC [g2:g26:cont:t1C] | 1.09 ± 0.039 | 0.0511 ± 0.011 |
| UCGACGAUCAGCUUGCAUAGUAUUUAGAAA | 0.494 ± 0.05 | 0.0104 ± 0.0033 |
| UCCACCUACAGCUUGCAUAGUAAUUUAGUUA | 0.201 ± 0.028 | 0.00822 ± 0.0023 |
| UCCUGCUUCAGCUUGCAUAGUAUAUAGUUA | 0.699 ± 0.047 | 0.0228 ± 0.006 |
| UCCUGGAUCAGCUUGCAUAGUAUUUUCUAA | 0.227 ± 0.044 | 0.00504 ± 0.0029 |
| UCCUCGUACAGCUAGCAUAGUAUUUAGUUA | 1.21 ± 0.05 | 0.0198 ± 0.0034 |
| UCGAGGUACAGCUUGCAUAGUAUUUAGAAA | 0.257 ± 0.034 | 0.00665 ± 0.0016 |
| UCCACCUACAGCUAGCAUAGUAUUUAGUUA | 0.973 ± 0.038 | 0.0169 ± 0.0041 |
| UCCUGGAACAGCUUGCAUAGUAUUUAGGUUA | 0.503 ± 0.041 | 0.0424 ± 0.0059 |
| UCCUGGAUGUGCUUGCAUAGAAUUUAGUUA | 0.0382 ± 0.0079 | 0.00918 ± 0.0029 |
| AGGACCUACAGCUUGGAUAGUAUUUACUUA | 0.478 ± 0.054 | 0.0287 ± 0.0043 |
| UGGACCUACAGCUUGCAUAGUAAUUAGUUA | 0.977 ± 0.059 | 0.0268 ± 0.0066 |
| UCGACCUACAGCUUGCAUUGAAUUUAGUUA | 0.251 ± 0.021 | 0.00707 ± 0.0023 |
| UCCUCCUUCAGCAUGCAUAGUAUUUAGUUA | 1.01 ± 0.043 | 0.0155 ± 0.0034 |
| UCGACCUACAGCUUGCAUAGUAUUUAAUUA | 0.315 ± 0.024 | 0.0439 ± 0.0095 |
| UCCUGGAUCACGCUUGCAUAGUAUUUAGUUA | 0.994 ± 0.044 | 0.0429 ± 0.0086 |

| Sequence | pre-steady-state target cleavage rate [1] | pre-steady-state target cleavage rate [2] |
| --- | --- | --- |
| UCCUGGUACAGCUUGCUUAGAAUUUAGUUA | 0.282 ± 0.073 | 0.00965 ± 0.0037 |
| UCCUGGAUCAGCUAGCAUACUAUUUAGUUA | 0.293 ± 0.024 | 0.00774 ± 0.0028 |
| UCCUGGAUCAGCUUGCAUAGUAUAUACUUA | 0.0572 ± 0.01 | 0.00554 ± 0.0023 |
| UCCUGGAUGUGCUUGCAUACUAUUUUGUUA | 0.0217 ± 0.0069 | 0.0101 ± 0.0021 |
| UGGACCUACAGCUUGCUUAGUAUUUACAAA | 0.195 ± 0.035 | 0.00309 ± 0.0018 |
| UCCUGGAAGCAGCUUGCAUAGUAUUUAGUUA | 1.15 ± 0.052 | 0.0705 ± 0.014 |
| UCCUGGAACAGCUUGCAUAGUAUGUAGUUA | 0.38 ± 0.047 | 0.0217 ± 0.004 |
| UCCUGGAACAGCUUGCUUAGUAUUAAGUUA | 0.275 ± 0.03 | 0.0112 ± 0.0042 |
| UCCAGCUACAGCUUCCAUAGUAUUUAGUUA | 0.0966 ± 0.022 | 0.00298 ± 0.0021 |
| UCCUGGAACAGCUUGCAUUGAAUUUAGUUA | 0.108 ± 0.014 | 0.00911 ± 0.0042 |
| UCCUGGAUGAGCUUGCAUAGUAUUUGAGUUA | 0.616 ± 0.07 | 0.017 ± 0.0049 |
| UCCACCUAGAGCUUGCAUAGUAAUUAGUUA | 0.907 ± 0.1 | 0.0206 ± 0.0041 |
| UCCUGCUACAGCAUGCUUAGUAUUUAGUUA | 0.819 ± 0.07 | 0.00897 ± 0.0027 |
| UCGUCCUACAGCUUGCAUAGUAAUUAGUUA | 0.874 ± 0.027 | 0.0282 ± 0.006 |
| UCCUGGUCAGCUUGCAUAGUAUUUAGUUA | 1.12 ± 0.03 | 0.0517 ± 0.01 |
| UCCUGGAUCACCUUGGAUAGUAUUUAGUUA | 0.317 ± 0.036 | 0.00731 ± 0.0027 |
| UCCUCCUACUGGUUGCAUAGUAUUUAGUUA | 0.952 ± 0.031 | 0.0303 ± 0.0054 |
| UGGACCUUCAGCUUGCAUAGUAUUUACUUA | 0.276 ± 0.024 | 0.0456 ± 0.01 |
| UGGACCUUGUGCUUGCAUAGUAUUUAGAAA | 0.0452 ± 0.0082 | 0.00518 ± 0.0023 |
| AGGACCUACACGAUGCAUAGUAUUUAGUUA | 0.966 ± 0.06 | 0.00704 ± 0.0025 |

| Sequence | pre-steady-state target cleavage rate [1] | pre-steady-state target cleavage rate [2] |
| --- | --- | --- |
| UCCUGGAUGUCCUUGCAUAGUAUUUUAGUUA | 0.0149 ± 0.0046 | 0.00474 ± 0.0022 |
| UGGACCUUGAGCUUGCAUAGUAUUUACAAA | 0.168 ± 0.028 | 0.00517 ± 0.0025 |
| UCCUGGAACAGCUUGCAUAGUAUUUCGUUA | 0.215 ± 0.029 | 0.0162 ± 0.0036 |
| UCGACCUACAGACUUGCAUAGUAUUUAGUUA | 1.06 ± 0.063 | 0.0588 ± 0.012 |
| UCCUGCUACAGCUUGCAUAGUAUUUAGGUUA | 0.604 ± 0.095 | 0.0187 ± 0.0056 |
| UCCUGGAACAGCUACCAUAGUAUUUAGUUA | 0.188 ± 0.015 | 0.00284 ± 0.0018 |
| UCCUGGAUGUCCUUGCAUAGUAUUUAGAUA | 0.0681 ± 0.017 | 0.00492 ± 0.0024 |
| AGGACCUACAGCUUGCAUAGUAUUUAGUCA | 0.838 ± 0.055 | 0.0761 ± 0.017 |
| UCCUGCUACAGCUUGCUAGUAUUUAGUUA | 0.0392 ± 0.013 | 0.00304 ± 0.0024 |
| UCCUGGAACAGCUUGGAUAGUAUUUACUUA | 0.0518 ± 0.0087 | 0.0182 ± 0.0036 |
| UCCACCUAGAGCUUGCAUAGUAUAUAGUUA | 0.658 ± 0.069 | 0.0203 ± 0.0052 |
| UGGACCUACAGCUUGCAUAGAAUUUUGUUA | 0.46 ± 0.075 | 0.0161 ± 0.0058 |
| UCCUCCUACGGCUUGCAUAGUAUUUAGUUA | 1.1 ± 0.048 | 0.0481 ± 0.0083 |
| UCCUGGUAGAGCUUGCAUAGUAUUUAGUUA | 0.758 ± 0.057 | 0.04 ± 0.0087 |
| UCGACCUACAGCUUGGAUAGUAUUAAGUUA | 0.589 ± 0.047 | 0.0157 ± 0.003 |
| UGGACCUACUCCUUGCAUAGUAUUUAGUUA | 1.11 ± 0.054 | 0.0434 ± 0.008 |
| UCCACCUACAGCUUGCAUAGUAUUAAGUUA | 0.648 ± 0.051 | 0.0198 ± 0.0046 |
| UCCACCAUCAGCUUGCAUAGUAUUUACAAA | 0.311 ± 0.038 | 0.00312 ± 0.0029 |
| UGGACCUACACCUUGCAUAGAAUUUAGUUA | 0.459 ± 0.069 | 0.0186 ± 0.0048 |
| AGGACCUACACCUUGCAUAGUAUUUACUUA | 0.381 ± 0.057 | 0.0485 ± 0.0091 |

Source: the supplement of paper PMC10338343
